The whole screen tested about 270,000 compounds, of which about 620 (0.23%) were called active. The shares of active, inactive and inconclusive entries below differ from those in the screen. Calls come from the whole dose curve; as a rule, active = well fitted inhibition curve with a large enough effect in the polarisation, with a control signal flat (not every such curve was filed as active); inconclusive = small, poorly fitted or top-dose-only effect, or effect the other way, or a change in a side signal; inactive = no such curve, though single readings can be large or run the other way; the % refers to the polarisation. Potencies of inconclusive entries are doubtful fits and often do not repeat. A note “side channel” means that the fit belongs to a control or component signal, not to the main read-out.
target: Menin (Homo sapiens) (UniProt O00255); assay: qHTS Assay for Inhibitors Targeting the Menin-MLL Interaction in MLL Related Leukemias: Competition With Texas Red Labeled MLL-derived Mutant Peptide; conditions: fluorescence polarization; FP activity change, negative = inhibition: at 61.6 µM (top of the series); for FP activity change, negative = inhibition: % of control where 0% means no effect
Chain of UniProt O00255 (O00255 whole entry, looked up): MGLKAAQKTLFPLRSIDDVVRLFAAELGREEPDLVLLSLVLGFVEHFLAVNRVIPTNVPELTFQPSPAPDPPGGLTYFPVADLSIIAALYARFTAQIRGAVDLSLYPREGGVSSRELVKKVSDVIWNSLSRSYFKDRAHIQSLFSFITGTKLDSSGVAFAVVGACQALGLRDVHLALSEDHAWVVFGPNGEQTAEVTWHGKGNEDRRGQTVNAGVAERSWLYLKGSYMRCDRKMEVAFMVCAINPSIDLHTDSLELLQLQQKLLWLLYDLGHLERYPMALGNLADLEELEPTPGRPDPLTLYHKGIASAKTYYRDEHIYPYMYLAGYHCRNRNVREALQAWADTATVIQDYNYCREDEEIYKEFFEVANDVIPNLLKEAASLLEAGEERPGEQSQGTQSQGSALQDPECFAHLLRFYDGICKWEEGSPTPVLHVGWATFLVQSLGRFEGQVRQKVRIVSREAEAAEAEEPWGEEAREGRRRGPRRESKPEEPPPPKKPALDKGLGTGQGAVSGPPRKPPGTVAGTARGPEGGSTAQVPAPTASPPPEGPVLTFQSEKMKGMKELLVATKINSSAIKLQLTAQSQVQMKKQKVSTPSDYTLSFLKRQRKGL
Potency is the fitted concentration of half-maximal effect; tags give direction and shape of the fitted curve or compound fluorescence and quenching.

Potency, inconclusive:
CCN(CC)CCCC(C)NC(=O)c1c(NC(=O)c2ccccc2)sc2c1CCCC2 (configuration not stated) 22.4 µM [fluorescent, side channel, partial curve]
CCOc1ccc(NC(=O)N(C2CCCCC2)C(C)c2cccnc2)cc1 (configuration not stated) 20 µM [quencher, side channel, single point]
COc1ccc(Oc2ccc(/C=N/NC(=O)c3cccnc3)cc2[N+](=O)[O-])cc1 25.1 µM [quencher, side channel, partial curve]
CC(C)S(=O)(=O)c1nsc2nc(=O)c(/C=C3\C=Nc4ccccc43)c(N)n12 14.1 µM [quencher, side channel, partial curve]
O=C(Nc1ccc(-c2nc3ccccc3o2)cc1)c1ccc(N2CCOCC2)c([N+](=O)[O-])c1 3.16 µM [quencher, side channel, full curve]
Cc1ccc2nc(N3C(=O)C(O)=C(C(=O)c4cc5ccccc5o4)C3c3cccs3)sc2c1 (configuration not stated) 28.2 µM [quencher, side channel, partial curve]
Cc1ccc(N2CCN(S(=O)(=O)N3CCCCCC3)CC2)cc1Cl 22.4 µM [fluorescent, side channel, single point]
CC(C)n1c(O)c(/C=C2\C=Nc3ccccc32)sc1=Nc1ccccc1 1.58 µM [quencher, side channel, partial curve, poor fit]
Cc1[nH]n(C(N)=S)c(=O)c1N=Nc1ccc(Br)cc1 8.91 µM [quencher, side channel, full curve]
Cc1cc(C(=O)OCC(=O)NCc2ccccc2Cl)c(C)o1 31.6 µM [inhibitor, single point]
CCC12CN3CC(CC)(CN(C1)C3c1ccc(OC(C)C)cc1)C2=O (configuration not stated) 3.98 µM [fluorescent, side channel, full curve, poor fit]
O=S(=O)(N/N=C1\CC(c2ccccc2)Oc2ccccc21)c1ccccc1 (configuration not stated) 3.16 µM [quencher, side channel, full curve]
O=C(CSc1nnc(NC2CCCCC2)s1)Nc1ccc2c(c1)C(=O)c1ccccc1C2=O 11.2 µM [quencher, side channel, partial curve]
Nc1cc(-c2ccc(Br)cc2)nn1Cc1ccccc1 25.1 µM [quencher, side channel, partial curve]
O=c1c(Cl)c2oc3ccccc3nc-2c2ccccc12 7.94 µM [quencher, side channel, full curve, poor fit]
Cc1cc(NC(=O)COC(=O)c2oc3c(Cl)cccc3c2C)no1 12.6 µM [inhibitor, partial curve]
COc1ccc(NC(=O)c2ccc3[nH]c(C)c(C)c3c2)cc1 25.1 µM [quencher, side channel, partial curve]
CCOc1cc(/C=C2\C(=N)N3N=C(N4CCCCC4)SC3=NC2=O)ccc1OC(=O)c1ccco1 31.6 µM [quencher, side channel, single point]
COc1ccc(-c2nn(-c3ccccc3)cc2/C=C2/SC(=S)N(CCCC(=O)O)C2=O)c(C)c1 12.6 µM [quencher, side channel, partial curve]
C[C@@]12CC(=O)C3=C(CCCC3=O)N1CCc1ccccc12 15.8 µM [inhibitor, partial curve, poor fit]
COc1cccc(/C=C/c2ccc3cccc(O)c3n2)c1OC 28.2 µM [quencher, side channel, single point]
COc1cccc(CN(C)CC(=O)Nc2c(C)cccc2C(C)C)c1 3.55 µM [fluorescent, side channel, partial curve]
Cc1ccc(-c2nn(-c3ccccc3)cc2C(=O)N2CCOCC2)cc1C 15.8 µM [fluorescent, side channel, partial curve]
Cc1ccc(NC(=O)NNc2cccc(Cl)n2)cc1 3.98 µM [inhibitor, single point]
O=C(CCCn1c(=S)[nH]c2ccccc2c1=O)NCCSCc1ccccc1 35.5 µM [inhibitor, single point]
O=C(Oc1cccc(NC(=O)c2ccccc2Cl)c1)c1ccc([N+](=O)[O-])cc1 22.4 µM [quencher, side channel, partial curve]
O=C(Nc1nnc(-c2ccc3c(c2)OCCO3)o1)c1ccc(Cc2ccccc2)cc1 28.2 µM [quencher, side channel, single point]
CCCCN1C(=O)C(NC(C)=O)c2ccccc21 (configuration not stated) 31.6 µM [inhibitor, partial curve]
Cc1nn(Cc2ccc(F)cc2)c(C)c1NC(=O)c1cc(-c2ccco2)on1 39.8 µM [fluorescent, side channel, single point]
CC(C)C(=O)Nc1cccc(-c2csc(-c3ccccc3)n2)c1 17.8 µM [quencher, side channel, single point]
CC(C)CSC1=NSC2=NC(=O)/C(=C\c3cccs3)C(=N)N12 12.6 µM [quencher, side channel, partial curve]
CC(=O)Oc1cc2oc(=O)c3c(c2cc1Cl)CCC3 28.2 µM [inhibitor, single point]
CCN(CC)c1ccc(NC(=O)CN2CCN(CC(=O)Nc3ccccc3OC)CC2)cc1 39.8 µM [inhibitor, single point]
COc1ccc(NC(=O)c2ccccc2NS(=O)(=O)c2ccc(C)cc2)c([N+](=O)[O-])c1 14.1 µM [quencher, side channel, partial curve]
O=C(Nc1nc2ccccc2s1)c1ccc2c(c1)OCO2 28.2 µM [quencher, side channel, single point]
O=C(Nc1ccc(OC(F)F)cc1)Nc1cccc(C(F)(F)F)c1 2.24 µM [quencher, side channel, partial curve]
O=C(N/N=C/c1cc2c(cc1[N+](=O)[O-])OCO2)c1ccc2c(c1)OCO2 39.8 µM [quencher, side channel, single point]
Nc1c(C(=O)Nc2ccccc2)sc2nc3c(c(-c4ccco4)c12)CCC3 28.2 µM [quencher, side channel, single point]
O=[N+]([O-])c1ccc(N2CCN(C(=S)Nc3ccc(F)cc3F)CC2)cc1 14.1 µM [quencher, side channel, partial curve]
CCn1c(SCC(=O)Nc2ccc3c(c2)oc2ccccc23)nnc1-c1ccc(N)cc1 10 µM [quencher, side channel, partial curve]
Cc1ccc(-c2nn(-c3ccccc3)cc2/C=N/O)cc1 17.8 µM [quencher, side channel, single point]
CC(C)Cn1c(SCC(=O)c2c(N)n(C)c(=O)n(C)c2=O)nc2ccccc21 3.16 µM [inhibitor, single point]
Cc1ccc(CSCC(=O)N2CCN(c3ccc(F)cc3)CC2)cc1 3.55 µM [inhibitor, full curve]
COc1ccc(/C=C/C(=O)Nc2nc(C)cc(C)n2)cc1OC 0.794 µM [inhibitor, full curve, poor fit]
O=C(N/N=C/c1ccc(O)cc1O)C(=O)N/N=C/c1ccc(O)cc1O 39.8 µM [inhibitor, single point]
O/N=C/Cc1[nH]c2ccccc2c1-c1ccccc1 14.1 µM [quencher, side channel, partial curve]
S=c1[nH]nc(-c2ccccc2)n1/N=C/c1ccc(-c2ccccc2Cl)o1 22.4 µM [quencher, side channel, single point]
O=c1oc(-c2cccs2)nc2ccccc12 22.4 µM [quencher, side channel, single point]
CCOc1ccc(N2C(=O)CC(SC(=NC)Nc3ccc(F)cc3)C2=O)cc1 (configuration not stated) 20 µM [quencher, side channel, partial curve]

Potency, inactive:
CCOc1ccc(S(=O)(=O)N2CCc3cc(OC)c(OC)cc3C2)cc1
Cc1ccc(C2CC(=O)Oc3ccc(O)cc32)cc1 (configuration not stated)
COC(=O)c1ccc(Cn2cnc3c(cnn3-c3ccc(F)cc3)c2=O)o1
CCOc1ccc2nc(NCCNC(=O)c3cc(OC)c(OC)c(OC)c3)c(C#N)cc2c1
CC(C)CCC[C@@H](C)[C@@H]1CC[C@H]2C3=CC=C4CC(O)CC[C@]4(C)[C@H]3CC[C@@]21C (some centres not stated)
O=C(Nc1ccc(CN2CCOCC2)cc1)c1ccc(-c2cc(Cl)ccc2Cl)o1
COc1ccc(/C=N/NC(=O)c2cccnc2)cc1CN1CCN(c2ccc(F)cc2)CC1

FP activity change, negative = inhibition, inactive:
O=C(NCc1ccccc1)N(Cc1nc2ccccc2c(=O)[nH]1)C1CCCC1 -2.79% [at 11.7 µM]
